Results taken from paper PMC11145805.
No constants are given. Whether binding was seen depends on the method and setting. Binding seen in cells or lysates may run through a third protein. Some results given as binding are weak or reduced against the parent protein; the word gives no strength. For part of these data: Where a sequence is shown, tags or fusion partners need not be part of it.

Protein sequences, listed by entry. Tags and fused reporters are not part of them. Lines headed by an entry give the natural chain unless they say otherwise; changes in a name come on top.
UniProt Q96PU5: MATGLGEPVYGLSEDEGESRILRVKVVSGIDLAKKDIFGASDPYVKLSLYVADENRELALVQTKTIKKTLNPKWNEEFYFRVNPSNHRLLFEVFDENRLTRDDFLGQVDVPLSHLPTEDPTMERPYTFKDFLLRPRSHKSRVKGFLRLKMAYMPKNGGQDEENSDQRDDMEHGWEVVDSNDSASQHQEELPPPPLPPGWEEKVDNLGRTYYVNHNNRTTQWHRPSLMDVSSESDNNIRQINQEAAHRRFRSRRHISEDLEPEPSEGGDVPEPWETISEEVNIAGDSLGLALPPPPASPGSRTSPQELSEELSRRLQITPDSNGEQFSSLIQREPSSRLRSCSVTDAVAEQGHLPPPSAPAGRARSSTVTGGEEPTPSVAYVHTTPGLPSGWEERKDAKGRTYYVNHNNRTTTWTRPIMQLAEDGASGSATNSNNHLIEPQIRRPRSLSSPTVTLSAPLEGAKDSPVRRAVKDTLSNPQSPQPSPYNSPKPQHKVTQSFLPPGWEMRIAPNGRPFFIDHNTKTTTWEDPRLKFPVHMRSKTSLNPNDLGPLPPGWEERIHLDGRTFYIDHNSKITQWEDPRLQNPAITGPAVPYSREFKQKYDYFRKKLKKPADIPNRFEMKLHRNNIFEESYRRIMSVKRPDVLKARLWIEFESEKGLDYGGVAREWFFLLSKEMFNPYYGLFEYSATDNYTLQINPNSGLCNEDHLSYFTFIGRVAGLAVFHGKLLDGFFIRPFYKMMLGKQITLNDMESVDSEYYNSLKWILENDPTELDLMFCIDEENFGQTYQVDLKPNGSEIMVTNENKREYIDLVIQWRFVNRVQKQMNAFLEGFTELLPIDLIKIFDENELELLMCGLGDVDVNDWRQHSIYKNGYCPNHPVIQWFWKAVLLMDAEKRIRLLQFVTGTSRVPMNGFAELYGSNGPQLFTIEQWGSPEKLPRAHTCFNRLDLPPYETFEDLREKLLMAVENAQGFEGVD

B1: GST-ITGB4 Fnll-1 and Fnll-2 fragment (1129-1426) (domain or fragment, UniProt P16144 1129-1426)
chain: APQNPNAKAAGSRKIHFNWLPPSGKPMGYRVKYWIQGDSESEAHLLDSKVPSVELTNLYPYCDYEMKVCAYGAQGEGPYSSLVSCRTHQEVPSEPGRLAFNVVSSTVTQLSWAEPAETNGEITAYEVCYGLVNDDNRPIGPMKKVLVDNPKNRMLLIENLRESQPYRYTVKARNGAGWGPEREAIINLATQPKRPMSIPIIPDIPIVDAQSGEDYDSFLMYSDDVLRSPSGSQRPSVSDDTGCGWKFEPLLGEELDLRRVTWRLPPELIPRLSASSGRSSDAEAPHGPPDDGGAGGKG
B2: GST-ITGB4 Fnll-3 and Fnll-4 fragment (1426-1822) (domain or fragment, UniProt P16144 1426-1822)
chain: GGSLPRSATPGPPGEHLVNGRMDFAFPGSTNSLHRMTTTSAAAYGTHLSPHVPHRVLSTSSTLTRDYNSLTRSEHSHSTTLPRDYSTLTSVSSHDSRLTAGVPDTPTRLVFSALGPTSLRVSWQEPRCERPLQGYSVEYQLLNGGELHRLNIPNPAQTSVVVEDLLPNHSYVFRVRAQSQEGWGREREGVITIESQVHPQSPLCPLPGSAFTLSTPSAPGPLVFTALSPDSLQLSWERPRRPNGDIVGYLVTCEMAQGGGPATAFRVDGDSPESRLTVPGLSENVPYKFKVQARTTEGFGPEREGIITIESQDGGPFPQLGSRAGLFQHPLQSEYSSITTTHTSATEPFLVDGLTLGAQHLEAGGSLTRHVTQEFVSRTLTTSGTLSTHMDQQFFQT
B3: GST-ITGB4 Galx-β fragment (Galx-β: 740-1129) (domain or fragment, UniProt P16144 740-1129)
chain: KACLALLPCCNRGHMVGFKEDHYMLRENLMASDHLDTPMLRSGNLKGRDVVRWKVTNNMQRPGFATHAASINPTELVPYGLSLRLARLCTENLLKPDTRECAQLRQEVEENLNEVYRQISGVHKLQQTKFRQQPNAGKKQDHTIVDTVLMAPRSAKPALLKLTEKQVEQRAFHDLKVAPGYYTLTADQDARGMVEFQEGVELVDVRVPLFIRPEDDDEKQLLVEAIDVPAGTATLGRRLVNITIIKEQARDVVSFEQPEFSVSRGDQVARIPVIRRVLDGGKSQVSYRTQDGTAQGNRDYIPVEGELLFQPGEAWKELQVKLLELQEVDSLLRGRQVRRFHVQLSNPKFGAHLGQPHSTTIIIRDPDELDRSFTSQMLSSQPPPHGDLGA

target: Flag-NEDD4L full-length (Full: 1-975) (UniProt Q96PU5); experiment: co-IP; ECA109 cells co-transfected with Flag-NEDD4L and GST-ITGB4 fragments; Flag antibody precipitates NEDD4L, ITGB4 fragments detected with GST antibody by Western blot

| binding | Molecule |
| --- | --- |
| no binding | B1 |
| no binding | B2 |
| binds | B3 |

target: GST-ITGB4 full-length (Full: 1-1822) (UniProt P16144); experiment: co-IP; ECA109 cells co-transfected with GST-ITGB4 and Flag-NEDD4L fragments; GST antibody precipitates ITGB4, NEDD4L fragments detected with Flag antibody by Western blot

| binding | Molecule |
| --- | --- |
| no binding | Flag-NEDD4L C2 fragment (C2: 4-126) (from UniProt Q96PU5 4-126) (domain or fragment) |
| binds | Flag-NEDD4L HECT fragment (HECT: 640-975) (from UniProt Q96PU5 640-975) (domain or fragment) |
| no binding | Flag-NEDD4L WW fragment (WW: 193-581) (from UniProt Q96PU5 193-581) (domain or fragment) |
